US20100172907A1 (Hoffmann-La Roche, published 2010)

Legend:
[1] = target: T1, BSA-conjugated Aβ heptapeptide VFFAEDC (C-terminal Cys coupled to NSMP-activated BSA); experiment: ELISA
T1 construct: also called Peptide 18-23
T1 peptide: VFFAEDC

[2] = target: T2, BSA-conjugated Aβ heptapeptide LVFFAEC (reading uncertain; also: BSA conjugate); experiment: ELISA
T2 construct: also called Peptide 17-22
T2 peptide: LVFFAEC([NSMP-BSA])

[3] = target: T3, BSA-conjugated Aβ heptapeptide FFAEDVC (C-terminal Cys coupled to NSMP-activated BSA); experiment: ELISA
T3 construct: also called Peptide 19-24
T3 peptide: FFAEDVC

[4] = target: T4, BSA-conjugated Aβ heptapeptide AEFRHDC (C-terminal Cys coupled to NSMP-activated BSA); experiment: ELISA
T4 construct: also called Peptide 2-7
T4 peptide: AEFRHDC

[5] = target: T5, Aβ (1-42) peptide (human); experiment: SPR, immobilized fibers
T5 construct: also called Aβ1-42 fibers; Aβ4

[6] = target: T6, human Aβ (1-40) peptide (human); experiment: SPR, immobilized fibers
T6 construct: also called Aβ1-40 fibers

[7] = target: T5, Aβ (1-42) peptide; experiment: SPR, immobilized fibers; remark: listed apart in the source
[8] = target: T6, human Aβ (1-40) peptide; experiment: SPR, immobilized fibers; remark: listed apart in the source
[9] = target: T1, BSA-conjugated Aβ heptapeptide VFFAEDC; experiment: ELISA
[10] = target: T2, BSA-conjugated Aβ heptapeptide LVFFAEC; experiment: ELISA
[11] = target: T3, BSA-conjugated Aβ heptapeptide FFAEDVC; experiment: ELISA
[12] = target: T4, BSA-conjugated Aβ heptapeptide AEFRHDC; experiment: ELISA
[13] = target: T5, Aβ (1-42) peptide; experiment: SPR, immobilized fibers; remark: listed apart in the source
[14] = target: T6, human Aβ (1-40) peptide; experiment: SPR, immobilized fibers; remark: listed apart in the source

Binder | OD ratio 18-23/BSA [1] | Peptide-ratio 18-23/2-7 [1] | OD ratio 17-22/BSA [2] | Peptide-ratio 17-22/2-7 [2] | OD ratio 19-24/BSA [3] | Peptide-ratio 19-24/2-7 [3] | OD ratio 2-7/BSA [4] | Kd [5] [nM] | Kd [6] [nM] | Kd [7] [nM] | Kd [8] [nM] | OD ratio 18-23/BSA [9] | Peptide-ratio 18-23/2-7 [9] | OD ratio 17-22/BSA [10] | Peptide-ratio 17-22/2-7 [10] | OD ratio 19-24/BSA [11] | Peptide-ratio 19-24/2-7 [11] | OD ratio 2-7/BSA [12] | Kd [13] [nM] | Kd [14] [nM]
MS-Roche #8.2 Fab (Fab, V domains shown) VH: [not shown - about 100 residues]LLSRGYNGYYHKFDVWGQGTLVTVSS VL: DIVLTQSPATLSLSPGERATLSCRASQSVSSSYLAWYQQKPGQAPRLLIYGASSRATGVPARFSGSGSGTDFTLTISSLEPEDFATYYCQQLSSYPPTFGQGTKVEIKR | 28 | 0.88 | 4 | 0.13 | 23 | 0.72 | 32 | 64 | 24 |  |  |  |  |  |  |  |  |  |  | 
MS-R #8.1 IgG1 (antibody, V domains shown, full-length human IgG1) VH: [not shown - about 100 residues]LLSRGYNGYYHKFDVWGQGTLVTVSS VL: DIVLTQSPATLSLSPGERATLSCRASQSVSSSYLAWYQQKPGQAPRLLIYGASSRATGVPARFSGSGSGTDFTLTISSLEPEDFATYYCQQLSNYPPTFGQGTKVEIKR |  |  |  |  |  |  |  |  |  | 12.3 | 6.6 | 16 | 1 | 7 | 0.44 | 14 | 0.88 | 16 | 12.3 | 6.6
MS-Roche #8 Fab (Fab, V domains shown, parental HuCAL Fab; also called MSR-8 Fab; MS-R 8) VH: [not shown - about 100 residues]LLSRGYNGYYHKFDVWGQGTLVTVSS VL: DIVLTQSPATLSLSPGERATLSCRASQSVSSSYLAWYQQKPGQAPRLLIYGASSRATGVPARFSGSGSGTDFTLTISSLEPEDFATYYCQQLSSFPPTFGQGTKVEIKR | 29 | 1.04 | 10 | 0.36 | 25 | 0.89 | 28 | 1000 |  |  |  |  |  |  |  |  |  |  |  | 
MS-R #3.3 IgG1 (antibody, V domains shown, also called MS-R IgG 3.3) VH: [not shown - about 100 residues]LTHYARYYRYFDVWGQGTLVTVSS VL: DIVLTQSPATLSLSPGERATLSCRASQSVSSSYLAWYQQKPGQAPRLLIYGASSRATGVPARFSGSGSGTDFTLTISSLEPEDFAVYYCHQMSSYPPTFGQGTKVEIKR |  |  |  |  |  |  |  |  |  | 6.6 |  | 16 | 0.94 | 11 | 0.65 | 11 | 0.65 | 17 | 6.6 | 3.7
MS-Roche #3.3 Fab (Fab, V domains shown) VH: [not shown - about 100 residues]LTHYARYYRYFDVWGQGTLVTVSS VL: DIVLTQSPATLSLSPGERATLSCRASQSVSSSYLAWYQQKPGQAPRLLIYGASSRATGVPARFSGSGSGTDFTLTISSLEPEDFAVYYCHQMSSYPPTFGQGTKVEIKR |  |  |  |  |  |  |  | 104 | 38 |  |  |  |  |  |  |  |  |  |  | 

The next lines start with the values.

OD ratio 18-23/BSA [1] | Peptide-ratio 18-23/2-7 [1] | OD ratio 17-22/BSA [2] | Peptide-ratio 17-22/2-7 [2] | OD ratio 19-24/BSA [3] | Peptide-ratio 19-24/2-7 [3] | OD ratio 2-7/BSA [4] | Kd [5] [nM] | Kd [6] [nM] | Kd [7] [nM] | Kd [8] [nM] | OD ratio 18-23/BSA [9] | Peptide-ratio 18-23/2-7 [9] | OD ratio 17-22/BSA [10] | Peptide-ratio 17-22/2-7 [10] | OD ratio 19-24/BSA [11] | Peptide-ratio 19-24/2-7 [11] | OD ratio 2-7/BSA [12] | Kd [13] [nM] | Kd [14] [nM] | Binder
11 | 0.37 |  |  | 8 | 0.27 | 30 | 42 | 24 |  |  |  |  |  |  |  |  |  |  |  | MS-Roche #8.1 Fab (Fab, V domains shown) VH: [not shown - about 100 residues]LLSRGYNGYYHKFDVWGQGTLVTVSS VL: DIVLTQSPATLSLSPGERATLSCRASQSVSSSYLAWYQQKPGQAPRLLIYGASSRATGVPARFSGSGSGTDFTLTISSLEPEDFATYYCQQLSNYPPTFGQGTKVEIKR
15 | 0.44 | 11 | 0.32 | 9 | 0.26 | 34 | 88 | 23 |  |  |  |  |  |  |  |  |  |  |  | MS-Roche #7.3 Fab (Fab, V domains shown) VH: [not shown - about 100 residues]GKGNTHKPYGYVRYFDVWGQGTLVTVSS VL: DIVLTQSPATLSLSPGERATLSCRASQSVSSSYLAWYQQKPGQAPRLLIYGASSRATGVPARFSGSGSGTDFTLTISSLEPEDFAVYYCHQVYSHPFTFGQGTKVEIKR
13 | 0.36 | 10 | 0.28 | 6 | 0.17 | 36 | 103 | 28 |  |  |  |  |  |  |  |  |  |  |  | MS-Roche #7.4 Fab (Fab, V domains shown, also called MS-R #7.4) VH: [not shown - about 100 residues]GKGNTHKPYGYVRYFDVWGQGTLVTVSS VL: DIVLTQSPATLSLSPGERATLSCRASQSVSSSYLAWYQQKPGQAPRLLIYGASSRATGVPARFSGSGSGTDFTLTISSLEPEDFAVYYCQQIYNFPHTFGQGTKVEIKR

Like-named read-outs stand apart in the source and are kept apart here. Groups on a side chain read outwards from the residue. No end group written: not given here. NSMP = not defined here
